Data as given in PubChem BioAssay AID488969 (Vanderbilt High Throughput Screening Facility, 2010).
The full ranking holds about 110,000 compounds; the median of “z-score” is about -0.1, and the highest 2% start at about 2. The list shows a part of the results. The source made the active and inactive calls.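 Rule for the calls: active = z-score in the third read window above 3 or below -3; inactive = the rest.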

These molecules were tested against Metabotropic glutamate receptor 8 (Rattus norvegicus) (UniProt P70579) (assay: rat mGluR8 modulators via GIRK flux, primary screen, cell-based, thallium flux, HTS (AID 488969)). Conditions: HEK293 rat mGluR8, GIRK (G protein-gated inwardly rectifying potassium channel) thallium flux, FluoZin2; at 10 µM; stronger effect = higher value; submaximal glutamate (EC20) added with thallium.
UniProt P70579, sequence (P70579 whole entry, looked up): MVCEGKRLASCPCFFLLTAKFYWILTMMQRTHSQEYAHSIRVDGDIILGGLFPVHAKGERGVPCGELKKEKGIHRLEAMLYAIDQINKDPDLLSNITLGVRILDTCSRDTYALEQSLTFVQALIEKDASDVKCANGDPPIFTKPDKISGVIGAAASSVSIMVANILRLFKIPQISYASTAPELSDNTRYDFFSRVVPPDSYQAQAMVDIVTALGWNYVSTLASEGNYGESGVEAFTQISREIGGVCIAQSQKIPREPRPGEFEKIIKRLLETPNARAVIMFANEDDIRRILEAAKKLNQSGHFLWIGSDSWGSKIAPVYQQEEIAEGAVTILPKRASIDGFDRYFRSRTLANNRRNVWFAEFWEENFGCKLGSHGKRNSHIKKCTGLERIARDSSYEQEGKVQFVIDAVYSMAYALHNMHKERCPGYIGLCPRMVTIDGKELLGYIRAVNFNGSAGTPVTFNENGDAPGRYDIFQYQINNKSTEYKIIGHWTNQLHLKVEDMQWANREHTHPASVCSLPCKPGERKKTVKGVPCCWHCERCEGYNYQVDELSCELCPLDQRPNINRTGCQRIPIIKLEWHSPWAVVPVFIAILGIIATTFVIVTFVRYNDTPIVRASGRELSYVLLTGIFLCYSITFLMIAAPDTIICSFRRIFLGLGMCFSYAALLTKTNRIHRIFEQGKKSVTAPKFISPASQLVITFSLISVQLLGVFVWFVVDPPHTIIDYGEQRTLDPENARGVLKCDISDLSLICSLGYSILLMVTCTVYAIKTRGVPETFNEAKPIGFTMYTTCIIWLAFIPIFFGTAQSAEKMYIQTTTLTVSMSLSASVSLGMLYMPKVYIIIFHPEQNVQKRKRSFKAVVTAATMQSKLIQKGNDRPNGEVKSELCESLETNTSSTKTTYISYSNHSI
Molecule `COC(=O)c1c(-c2ccccc2)csc1NC(=O)c1c(-c2ccccc2)noc1C` has a z-score of 0.119.
`Cc1cccc(NC(=O)CSc2nc3[nH]ncc3c(=O)[nH]2)c1` gave a z-score of -0.381.
Work on `O=C(CNS(=O)(=O)c1ccc(Cl)cc1)OCC(=O)N1CCCc2ccccc21` yielded a z-score of -0.297.
Work on `COc1cccc(-c2cc(C(F)(F)F)nc(-n3cncn3)n2)c1` yielded a z-score of -0.1.
In the case of `O=C(c1ccc(Cl)cc1)c1cnc(Nc2ccccc2)s1`, the z-score is reported as 0.124.
`O=C(OCCN1CCN(c2ncc(C(F)(F)F)cc2Cl)CC1)c1ccc(Cl)cc1` gave a z-score of -0.0679.
In the case of `O=C1c2ccccc2NC(c2ccc(Cl)cc2Cl)N1Cc1ccccc1` (stereo not given), the z-score is reported as 0.145.
Molecule `CN(C)c1nn(C(=O)Nc2cccc(C(F)(F)F)c2)cc1-c1ccccc1` has a z-score of 0.254.
`O=C(CN1CCN(C(=O)c2ccco2)CC1)Nc1ccc2c(c1)OCO2` showed a z-score of 0.0955.
In the case of `COc1cc(CN2CCC(C(=O)NC3CCCC3)CC2)ccc1O`, the z-score is reported as 0.0633.
In the case of `CCOC(=O)c1sc(NC(=O)C(OC(C)=O)c2ccccc2)nc1C` (stereo not given), the z-score is reported as -0.264.
`COc1ccc(/C(O)=C2/C(=O)C(=O)N(Cc3cccnc3)C2c2ccncc2)cc1F` (stereo not given) showed a z-score of 0.137.
`CC1=NN(c2ccccc2)C(=O)/C1=C\C=C1/N(C)c2ccccc2C1(C)C` showed a z-score of -0.533.
For `CC(C)CN(C(=O)COC(=O)c1ccc([N+](=O)[O-])o1)C1CCS(=O)(=O)C1` (stereo not given), the z-score was -0.467.
`CN(C)c1cccc(C(=O)OCC(=O)Nc2ccccc2Sc2ccccc2)c1` showed a z-score of -0.208.
For `CC(=O)c1cc(C(c2csc(C(C)=O)c2)c2csc(C(C)=O)c2)cs1`, the z-score was -0.0128.
`Cc1ccc2c(c1)N(C(=O)CSc1nncn1C)C(C)(C)c1ssc(=S)c1-2` gave a z-score of -0.0938.
In the case of `O=c1[nH]c(=O)n(CCc2ccc(F)cc2)c(O)c1C=NCc1ccc2c(c1)OCO2`, the z-score is reported as -0.144.
Molecule `Cc1nn(Cc2n[nH]c(=S)n2Cc2ccccc2)c(C)c1Cl` has a z-score of 0.175.
In the case of `Cn1c(=O)c2cc(S(=O)(=O)NCCC(=O)NC3CCCCCC3)ccc2n(C)c1=O`, the z-score is reported as -0.269.
For `O=C1CC(NC23CC4CC(CC(C4)C2)C3)C(=O)N1c1ccc2c(c1)OCO2` (stereo not given), the z-score was 0.378.
With `COC(=O)c1c(NC(=O)COC(=O)c2ccc(C)s2)sc2c1CCCCC2` the z-score was 0.122.
`COc1ccccc1CNC(=O)c1ccccc1OC` gave a z-score of -0.186.
In the case of `CCCc1cc(C(=O)NNC(=S)NC(C)c2ccccc2)cs1` (stereo not given), the z-score is reported as 0.211.
In the case of `O=C(c1ccc(Cn2cc(Cl)cn2)o1)N1CCN(Cc2ccc3c(c2)OCO3)CC1`, the z-score is reported as 0.247.
`Cc1ccc(C(=O)Nc2nnn(C)n2)cc1` showed a z-score of -0.309.
`N#Cc1c(SCc2ccccc2)sc(C(=O)c2ccccc2)c1N` gave a z-score of -0.149.
Work on `O=S(=O)(Cc1ccccc1)NCc1cccnc1` yielded a z-score of 0.705.
Work on `O=c1sc(Nc2ccccc2)nc2ccsc12` yielded a z-score of -0.965.
`C=CCc1cccc(OC)c1OCCOCCNCCO` gave a z-score of 0.46.
`CN(C)c1ncnc2c1ncn2C1OC(CO)C(O)C1O` (stereo not given) showed a z-score of -0.162.
`O=C(NCCN1CCN(c2ccccc2)CC1)C1CCN(S(=O)(=O)N2CCOCC2)CC1` was tested, and the z-score was -0.0498.
For `CC1(C)Oc2ccc3ccc(=O)oc3c2C(/C=N/O)C1=O` (stereo not given), the z-score was -0.123.
`N#Cc1c(C(F)(F)F)cc(-c2ccccc2)nc1SCC(=O)N1CCOCC1` showed a z-score of 0.167.
Work on `O=C(NCN1CCCCC1)c1cccnc1` yielded a z-score of -0.466.
`Cc1c(C(=O)Nn2cnnc2)oc2ccccc12` was tested, and the z-score was -0.239.
With `Cc1ccc(-n2c(Cc3ccccc3)n[nH]c2=S)cc1` the z-score was 0.0128.
Work on `O=C(CCN1C(=O)c2ccccc2S1(=O)=O)Nc1nc2c(s1)CCCC2` yielded a z-score of -0.477.
Work on `S=C(NCc1ccco1)N1CCN(Cc2ccc(Cl)cc2Cl)CC1` yielded a z-score of 0.101.
`Cc1nn(C)cc1CNC(=O)COc1ccc(Cl)cc1Cl` showed a z-score of -1.27.
With `COc1ccc(OC)c(C2C(C(=O)c3ccc(C)o3)=C(O)C(=O)N2CCCN2CCOCC2)c1` (stereo not given) the z-score was 0.000947.
In the case of `CCOc1ccc(NC(=O)c2cc3cc4ccc(OC)cc4nc3o2)cc1`, the z-score is reported as 0.334.
Molecule `CCCN(CC(=O)Nc1cccc(Br)c1)CC(=O)Nc1ccc(F)c(F)c1F` has a z-score of -0.131.
For `CC12CC3(C)CC(C)(C1)CC(C(=O)Nc1nn[nH]n1)(C2)C3`, the z-score was -0.174.
For `S=c1[nH]ncn1/N=C/c1ccc(Br)cc1`, the z-score was -0.0645.
`CN(CC(N)=O)S(=O)(=O)c1ccc(F)cc1` was tested, and the z-score was -0.00769.
In the case of `COc1ccc(CCNC(=O)CN2CCN(S(=O)(=O)c3ccc(Cl)cc3)CC2)cc1OC`, the z-score is reported as -0.122.
Work on `O=c1cc(CN2CCN(c3ccccc3F)CC2)c2cc3c(cc2o1)CCCC3` yielded a z-score of -0.635.
In the case of `O=C(N/C=C\c1ccccc1)NCc1ccc(Cl)cc1Cl`, the z-score is reported as 0.0685.
`CC1CCN(C(=O)CN(CCc2ccccc2)S(C)(=O)=O)CC1` gave a z-score of -1.02.
With `CCOC(=O)c1c(C2CCN(C(=O)OCC)CC2)nc2ccccn12` the z-score was -1.34.
`Cc1ccc(NC(=O)CSc2nc(=O)cc(N)n2-c2ccccc2)cc1` was tested, and the z-score was -0.553.
Molecule `CS(=O)(=O)N1CCN(c2ccccc2NC(=O)C(c2ccccc2)c2ccccc2)CC1` has a z-score of -0.00583.
Molecule `O=C(Nc1ccccc1C(F)(F)F)NC1CCCCCCC1` has a z-score of 0.0591.
With `Brc1ccc(-c2nc(-c3ccccn3)no2)o1` the z-score was -0.142.
`COc1ccccc1-c1cc(-c2ccccc2)nc(SC(C(N)=O)c2ccccc2)c1C#N` (stereo not given) was tested, and the z-score was -0.0167.
Molecule `CCOC(=O)c1c(C#N)c(SCC(=O)Nc2ccc(OC)cc2)nc2c1CN(CC)CC2` has a z-score of -0.756.
In the case of `COC(=O)C1=NN(C(=O)c2ccc(C)cc2)C(O)(c2ccc(Cl)cc2)C1` (stereo not given), the z-score is reported as active: 8.48.
Work on `CCOc1ccc(NC(=O)C2CCN(S(=O)(=O)c3cccnc3)CC2)cc1` yielded a z-score of 0.256.
`CN(NC(=O)C(C)(C)C)c1nc(-c2ccccc2)nnc1C(F)(F)F` showed a z-score of -0.349.
With `CCN(NC(=O)C(O)(c1ccccc1)c1ccccc1)C(=O)c1ccccc1` the z-score was 0.112.
`Cc1nc2ccccc2c(=O)n1/N=C/c1ccccn1` showed a z-score of 0.777.
`COc1cccc(/C=C/C(=O)c2c(O)cc(C)oc2=O)c1O` showed a z-score of -0.722.
In the case of `Cc1ccc(-c2cc(C(F)F)n3ncc(C(=O)Nc4ccc(S(=O)(=O)Nc5ccccc5C)cc4)c3n2)cc1`, the z-score is reported as -0.423.
Work on `Cc1c(NC(=O)C2CCCO2)cccc1[N+](=O)[O-]` (stereo not given) yielded a z-score of 0.0386.
Work on `CC(C1CC1)N(Cc1ccccc1)C(=S)Nc1cccc(C(F)(F)F)c1` (stereo not given) yielded a z-score of 0.103.
`CS(=O)(=O)N1CCCC(C(=O)NCCc2ccc(Cl)cc2)C1` (stereo not given) was tested, and the z-score was -0.676.
Work on `Cc1cc(C)c2ccc(C)[n+]([O-])c2c1O` yielded a z-score of -0.0291.
In the case of `CCOC(=O)c1ccc(NC(=O)CN2C(=O)C(CC)SC(CC)C2=O)cc1` (stereo not given), the z-score is reported as 1.35.
With `COC(=O)c1ccccc1NC(=O)CSc1nnc(-c2cccc(NC(C)=O)c2)n1C` the z-score was -1.41.
For `Cc1nnc(-c2cnn(-c3ccccc3)c2N)n1Cc1ccncc1`, the z-score was -0.125.
For `O=C(Cc1ccc(-n2cccc2)cc1)NCc1ccccc1Cl`, the z-score was -0.262.
`CC(c1ccccc1)C1CC(=O)N(C2CCCCC2)C1=O` (stereo not given) gave a z-score of 1.21.
`Cc1ccc(C(=O)Nc2ccc3c(c2)OCO3)cc1S(=O)(=O)N1CCCC1` gave a z-score of -0.613.
`Cc1cccc(C(=O)N[C@H](C(=O)Nc2cc(S(=O)(=O)N3CCCCC3)ccc2C)C(C)C)c1` gave a z-score of -0.375.
`CCNc1nc(Oc2ccc(Cl)cc2Cl)cc(C(F)(F)F)n1` gave a z-score of -0.068.
Work on `COCCn1nnnc1C(c1cccc(OC)c1OC)N1CCN(C2CCCCC2)CC1` (stereo not given) yielded a z-score of -0.0491.
Work on `Cc1ccc(SCCNC(=O)c2ccc(C)c(S(=O)(=O)Nc3ccccc3C)c2)cc1` yielded a z-score of -0.0879.
`COc1ccc(CN2CC(C(=O)NCC3CCCO3)CC2=O)cc1` (stereo not given) showed a z-score of -0.17.
In the case of `CC1CCCC(C(=O)OCc2ccccc2)N1` (stereo not given), the z-score is reported as 0.267.
Molecule `CCN(CC)S(=O)(=O)c1ccc(Cl)c(C(=O)NC2CCCC2)c1` has a z-score of 0.272.
`Cc1onc(-c2ccccc2Cl)c1C(=O)OCC(=O)c1ccc2c(c1)OCCO2` was tested, and the z-score was -0.959.
Work on `CCN(CC(=O)N1CCN(C)CC1)S(=O)(=O)c1ccc(Cl)cc1` yielded a z-score of -0.0769.
In the case of `Cc1cc(NS(=O)(=O)c2ccc(NC(=O)CN3C(=O)c4ccccc4C3=O)cc2)nc(C)n1`, the z-score is reported as 0.763.
`CCS(=O)(=O)N1CCC(C(=O)N2CCc3ccccc3C2)CC1` showed a z-score of -0.393.
Work on `CC1CN(Cc2nc3c(c(=O)n(C)c(=O)n3C)n2CC(=O)c2ccccc2)CC(C)O1` (stereo not given) yielded a z-score of 0.0268.
In the case of `Cn1cnnc1SCC(=O)Nc1ccc2c(c1)CCC2`, the z-score is reported as 0.0373.
Molecule `Cc1csc(NC(=O)CSc2nnc(-c3ccc(Cl)cc3)n2N)n1` has a z-score of -0.145.
Work on `CCCSc1nsc(N)n1` yielded a z-score of -0.215.
With `O=[N+]([O-])c1ccc(COc2cccc(CNc3ccc(F)cc3)c2)cc1` the z-score was 0.0807.
For `CCN(CC)c1ccc(/C=N/N2CCN(Cc3ccc(C)cc3)CC2)c(O)c1`, the z-score was -0.258.
For `CCN(CC)C(=S)NC(=O)c1ccc(Cl)cc1Cl`, the z-score was 2.95.
`NC(=O)CCS(=O)(=O)CCN1CCCCC1` gave a z-score of 0.0272.
`CCOc1ccc(CNC(=O)c2ccc(Sc3ccc(C)cc3)c(NC(C)=O)c2)cc1` gave a z-score of -0.148.
`CC(=O)c1cccc(NC(=O)c2cc(-c3ccc(F)cc3)on2)c1` was tested, and the z-score was -0.286.
With `NC(=O)c1sc2nc3c(c(-c4cccnc4)c2c1N)CCC3` the z-score was 0.964.
In the case of `Cc1ccc(C)c(NC(=O)Cn2c([N+](=O)[O-])cnc2C)c1`, the z-score is reported as -0.109.
Work on `CCOC(=O)C1CCCN(C(=O)CC(C)c2ccccc2)C1` (stereo not given) yielded a z-score of -0.335.
`O=C(NC1CCCc2ccccc21)c1ccc(CNc2c(N3CCOCC3)c(=O)c2=O)cc1` (stereo not given) showed a z-score of -0.316.
`O=C(NCCCO)NC12CC3CC(CC(C3)C1)C2` gave a z-score of -0.299.
For `CCOC(=O)c1sc(NC(=O)C(CC)OC(=O)C(CC(C)C)NC(=O)c2ccccc2)nc1C` (stereo not given), the z-score was -0.142.
`Cc1noc(C)c1COc1ccc(C(=O)OCC(=O)N2CC(=O)Nc3ccccc32)cc1` gave a z-score of -0.373.
`CC(=O)N=C1SC2CS(=O)(=O)CC2N1c1cccc(Cl)c1Cl` (stereo not given) was tested, and the z-score was -0.0248.
`Cc1nc2ccccc2n1C1CCN(CC(=O)NCc2ccc(F)cc2)CC1` showed a z-score of 0.185.
With `O=C(CN1CCCCCC1)N1c2ccccc2C=Cc2ccccc21` the z-score was 0.816.
`Cc1ccc(S(=O)(=O)N2CCN(S(=O)(=O)N3CCCCC3)CC2)cc1` was tested, and the z-score was -0.495.
`Cc1ccc(NC(=O)Nc2ccc(F)cc2)nc1` showed a z-score of -0.00242.
For `Cc1ccc(OCc2nnc(NC(=O)Cc3cccs3)s2)cc1`, the z-score was 0.179.
Molecule `CCOC(=O)NC1(C(F)(F)F)C(=O)NC(C)=C1C(=O)OC` (stereo not given) has a z-score of -0.362.
For `Cc1cc(C(=O)COC(=O)CNC(=O)c2ccc(Cl)c(Cl)c2)c(C)n1Cc1ccco1`, the z-score was 0.295.
